According to the supplement of paper PMC4967469:

Assays:
Assay in all cases: Viability of human cancer cell lines after 72 h of drug (GDSC screen)
AT-7519 = compound: O=C(NC1CCNCC1)c1n[nH]cc1NC(=O)c1c(Cl)cccc1Cl [AT-7519]; conditions: top dose 10.24 µM; top dose inferred
Experimental: (§1)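 Human cancer cell lines in 384-well plates, medium with 10% serum, drug for 72 h over a 256-fold dose range (nine 2-fold or five 4-fold steps up to the top dose). Adherent lines were fixed and stained with the nucleic acid dye Syto60, suspension lines read with resazurin; signal relative to control wells, capped at 0 and 100%. One two-parameter sigmoid per drug and line, fitted in a mixed model over all curves with the slope shared within a line.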

XMD14-99 = compound: COc1cc(N2CCN(C)CC2)ccc1Nc1nc(N)c(C(=O)c2c(Cl)cccc2Cl)s1 [XMD14-99]; conditions: top dose 10.24 µM; top dose inferred
Experimental: as §1

FH535 = compound: Cc1cc([N+](=O)[O-])ccc1NS(=O)(=O)c1cc(Cl)ccc1Cl [FH535]; conditions: top dose 32 µM; top dose inferred
Experimental: as §1

Row | Cell Line | AUC (AT-7519) | IC50 (AT-7519) [µM] | AUC (XMD14-99) | IC50 (XMD14-99) [µM] | AUC (FH535) | IC50 (FH535) [µM]
1 | OAW-28 (ovary, adherent) | 0.84 | 9.92 | 0.975 | > 10.2 | 0.751 | 13.1
2 | NCI-H1781 (lung adenocarcinoma, adherent) | 0.971 | > 10.2 | 0.953 | > 10.2 | 0.615 | 4.14
3 | NCI-H838 (lung adenocarcinoma, adherent) | 0.754 | 3.57 | 0.987 | > 10.2 | 0.733 | 9.56
4 | U-118-MG (glioma, adherent) | 0.985 | > 10.2 | 0.984 | > 10.2 | 0.858 | > 32
5 | KYSE-520 (oesophagus, adherent) | 0.754 | 4.57 | 0.982 | > 10.2 | 0.792 | 20.3
6 | H2591 (mesothelioma, adherent) | 0.875 | > 10.2 | 0.982 | > 10.2 | 0.608 | 4.35
7 | H2369 (mesothelioma, adherent) | 0.819 | 6.08 | 0.986 | > 10.2 | 0.53 | 2.42
8 | RT-112 (bladder, adherent) | 0.464 | 0.508 | 0.981 | > 10.2 | 0.665 | 6
9 | HCC38 (breast, adherent) | 0.774 | 4.36 | 0.986 | > 10.2 | 0.745 | 10.7
10 | NCI-H460 (large cell lung carcinoma, adherent) | 0.99 | > 10.2 | 0.99 | > 10.2 | 0.612 | 3.93
11 | H2722 (mesothelioma, adherent) | 0.958 | > 10.2 | 0.977 | > 10.2 | 0.729 | 10.3
12 | MIA-PaCa-2 (pancreas, adherent) | 0.941 | > 10.2 | 0.985 | > 10.2 | 0.361 | 0.794
13 | H2373 (mesothelioma, adherent) | 0.983 | > 10.2 | 0.983 | > 10.2 | 0.827 | 26.7
14 | CAL-54 (kidney, adherent) | 0.95 | > 10.2 | 0.984 | > 10.2 | 0.55 | 2.8
15 | EGI-1 (biliary tract, adherent) | 0.644 | 1.81 | 0.977 | > 10.2 | 0.744 | 12.6
16 | JHH-6 (liver, adherent) | 0.912 | > 10.2 | 0.985 | > 10.2 | 0.556 | 2.86
17 | TMK-1 (stomach, adherent) | 0.695 | 2.35 | 0.98 | > 10.2 | 0.496 | 1.95
18 | ME-180 (cervix, adherent) | 0.569 | 0.997 | 0.978 | > 10.2 | 0.691 | 7.06
19 | CHP-212 (neuroblastoma, adherent) | 0.9 | > 10.2 | 0.96 | > 10.2 | 0.459 | 1.56

Row | Cell Line | AUC (AT-7519) | IC50 (AT-7519) [µM] | AUC (XMD14-99) | IC50 (XMD14-99) [µM] | AUC (FH535) | IC50 (FH535) [µM]
20 | 5637 (bladder, adherent) | 0.632 | 1.42 | 0.982 | > 10.2 | 0.71 | 7.34
21 | CAL-29 (bladder, adherent) | 0.877 | > 10.2 | 0.984 | > 10.2 | 0.853 | 28.2
22 | KYM-1 (rhabdomyosarcoma, adherent) | 0.991 | > 10.2 | 0.988 | > 10.2 | 0.768 | 10.3
23 | PANC-03-27 (pancreas, adherent) | 0.464 | 0.515 | 0.989 | > 10.2 | 0.726 | 8.34
24 | COLO-680N (oesophagus, adherent) | 0.726 | 3.21 | 0.986 | > 10.2 | 0.732 | 10.5
25 | EPLC-272H (lung squamous cell carcinoma, adherent) | 0.333 | 0.205 | 0.983 | > 10.2 | 0.809 | 19.4
26 | H4 (glioma, adherent) | 0.877 | 10.1 | 0.985 | > 10.2 | 0.556 | 2.84
27 | OVTOKO (ovary, adherent) | 0.862 | > 10.2 | 0.952 | > 10.2 | 0.682 | 7.49
28 | UMC-11 (lung carcinoid, adherent) | 0.799 | 4.3 | 0.965 | > 10.2 | 0.449 | 1.48
29 | CAL-33 (head and neck, adherent) | 0.776 | 4.09 | 0.986 | > 10.2 | 0.604 | 3.86
30 | DOK (head and neck, adherent) | 0.611 | 1.5 | 0.976 | > 10.2 | 0.751 | 15.6
31 | HO-1-N-1 (head and neck, adherent) | 0.452 | 0.478 | 0.989 | > 10.2 | 0.876 | 27.2
32 | BICR22 (head and neck, adherent) | 0.63 | 1.55 | 0.983 | > 10.2 | 0.582 | 3.46
33 | Ca-Ski (cervix, adherent) | 0.369 | 0.265 | 0.959 | > 10.2 | 0.764 | 13
34 | NUGC-4 (stomach, adherent) | 0.941 | > 10.2 | 0.982 | > 10.2 | 0.76 | 11.3
35 | CAL-39 (cervix, adherent) | 0.84 | 7.41 | 0.986 | > 10.2 | 0.544 | 2.64
36 | WM1552C (melanoma, adherent) | 0.684 | 2.1 | 0.977 | > 10.2 | 0.678 | 6.33
37 | MDA-MB-157 (breast, adherent) | 0.892 | > 10.2 | 0.988 | > 10.2 | 0.692 | 7
38 | 647-V (bladder, adherent) | 0.734 | 2.99 | 0.987 | > 10.2 | 0.568 | 3.06

A lower IC50 marks a more sensitive line; a fit beyond the top or the lowest dose is shown as a bound at that dose. For AUC the same curve is integrated over the 256-fold range of doses and scaled to a fraction; values near 1 show little effect. A top dose marked as inferred was calculated from the reported fits.
